According to patent publication US20230398232A1, “Composition and Use of Alternatively Formatted Anti-Mesothelin Antibodies for the Treatment of Cancer” (Navrogen, Inc., priority 2020, published 2023):

Tests used:
[1] = test system: OVCAR3 ovarian cancer cell line; assay: PBMC immune-mediated killing of OVCAR3 (Cell Titer GLO); type: cell-based; conditions: OVCAR3 plus human PBMCs; 72 hours
OVCAR3 cells = assay: Jurkat-CD16a ADCC reporter assay, OVCAR3; type: cell-based, human; conditions: OVCAR3, CA125 expressing
human CA125 protein = assay: ELISA screen for binding of anti-mesothelin antibodies by CA125; conditions: 15 KU/mL soluble CA125 coated, 2.5 μg/mL antibody, 450 nm
[2] = test system: OVCAR3 CA125 knockdown line (OVCAR-KO); assay: pHrodo antibody internalization assay, OVCAR-KO; type: cell-based, human; conditions: over 24 hours
[3] = test system: OVCAR3 cells (mesothelin and membrane bound CA125); assay: pHrodo antibody internalization assay, OVCAR3; type: cell-based, human; conditions: OVCAR3, CA125 expressing; over 24 hours
[4] = test system: NCI-N87 gastric cancer xenograft; assay: NCI-N87 gastric cancer CDX model; type: in vivo, SCID mice; conditions: for in vivo efficacy, cleavable versus non-enzymatic cleavable format: comparison of formats
[5] = test system: mesothelin negative A549 and CHO cells; assay: MES-ADC killing of mesothelin-negative control lines; type: cell-based; conditions: A549 or CHO; 72 hours
NCI-N87 and SW1990 cells = assay: PNU-MES-ADC linker format potency comparison; type: cell-based, human
[6] = test system: mesothelin-positive NCI-N87, SW1990, HAY, YOU, OVCAR3, CHO-MES cells; assay: MES-ADC killing of mesothelin-positive cell lines, crystal violet; type: cell-based; conditions: mesothelin expressing lines irrespective of CA125 status; cleavable linkers; 72 hours
[7] = test system: LXFA983 NSCLC PDX (CA125 low); assay: LXFA983 NSCLC PDX model; type: in vivo, athymic nude mice; conditions: 0.625 mg/kg day 1, 4, 8 and 0.4 mg/kg day 12, 16, i.v., p≤0.0003
[8] = test system: CA125 positive, mesothelin-expressing PXF1118 tumors; assay: PXF1118 PDX, single and multiple dosing; type: in vivo, athymic nude mice
[9] = test system: PXF1118 mesothelioma PDX (CA125 high); assay: PXF1118 PDX model; type: in vivo, athymic nude mice; conditions: 0.625 mg/kg day 1, 4, 8 and 0.4 mg/kg day 12, 16, 20, i.v., p≤0.012
[10] = test system: mesothelin positive, CA125 expressing human mesothelioma cell line; assay: Humanized PBMC nude mouse mesothelioma model; type: in vivo, athymic nude mice
[11] = test system: OVCAR3-CA125 knockdown (OVCAR-KO) cell line; assay: Jurkat-CD16a ADCC reporter assay, OVCAR-KO; type: cell-based, human
[12] = test system: SW1990 pancreatic cancer xenograft; assay: SW1990 pancreatic cancer CDX model; type: in vivo, athymic nude mice; conditions: day 39
[13] = listed as PNU-MES-ADC cleavable format

B1: MES-1: anti-mesothelin antibody of SEQ ID NO: 1 (light chain) and SEQ ID NO: 2 (heavy chain), CA125 refractory (antibody, listed as Oryctolagus cuniculus)
heavy: EVQLVESGGGLVQPGGSLRLSCAASGFDLGFYFYACWVRQAPGKGLEWVSCIYTAGSGSTYYASWAKGRFTISRDNSKNTLYLQMNSLRAEDTAVYYCARSTANTRSTYYLNLWGQGTLVTVSS[left out - human IgG1 constant region]
light: DIQMTQSPSSLSASVGDRVTITCQASQRISSYLSWYQQKPGKVPKLLIYGASTLASGVPSRFSGSGSGTDFTLTISSLQPEDVATYYCQSYAYFDSNNWHAFGGGTKVEIKRTVAAPSVFIFPPSDEQLKSGTASVVCLLNNFYPREAKVQWKVDNALQSGNSQESVTEQDSKDSTYSLSSTLTLSKADYEKHKVYACEVTHQGLSSPVTKSFNRGEC
PBMC immune-mediated target cell killing [1]: showed tumor cell killing | ADCC activity (luciferase readout) (OVCAR3 cells): significantly higher ADCC activity against OVCAR3 than meso-Ab-4 | binding of antibody by CA125 (ELISA) (human CA125 protein): not bound by CA125 | binding of antibody by CA125 (ELISA) (human CA125 protein; listed as meso-Ab3): did not | antibody uptake (intracellular fluorescence) [2]: efficient uptake | antibody uptake (intracellular fluorescence) [3]: efficient uptake

B2: PNU-MES-ADC (conjugate)
light: DIQMTQSPSSLSASVGDRVTITCQASQRISSYLSWYQQKPGKVPKLLIYGASTLASGVPSRFSGSGSGTDFTLTISSLQPEDVATYYCQSYAYFDSNNWHAFGGGTKVEIKRTVAAPSVFIFPPSDEQLKSGTASVVCLLNNFYPREAKVQWKVDNALQSGNSQESVTEQDSKDSTYSLSSTLTLSKADYEKHKVYACEVTHQGLSSPVTKSFNRGEC
heavy: EVQLVESGGGLVQPGGSLRLSCAASGFDLGFYFYACWVRQAPGKGLEWVSCIYTAGSGSTYYASWAKGRFTISRDNSKNTLYLQMNSLRAEDTAVYYCARSTANTRSTYYLNLWGQGTLVTVSS[left out - human IgG1 constant region]
reduced tumor growth ([4]; 0.5 mg/kg i.v. day 1, 8, 15, 25, 32, 44, p≤0.050): 45% | in vivo efficacy, cleavable versus non-enzymatic cleavable format [4]: significantly more efficacious in vivo | cell killing of mesothelin-negative lines [5]: unaffected | potency of cleavable format versus non-enzymatic cleavable format (NCI-N87 and SW1990 cells; MA-PEG4-VC-PAB-DMAE vs MC-EDA linker): ~100 fold | potency, enzymatic cleavable versus non-enzymatic cleavable format (NCI-N87 and SW1990 cells; NCI-N87 and SW1990 cells): significantly more potent | target cell killing [6]: most potent targeted killing effect; also recorded: most robust killing activity; also recorded: most significant cell killing | tumor response [7]: equally effective in killing and causing regression of both tumors | tumor response [7, 13]: induced significant tumor regression | tumor response ([8]; 0.25 mg/kg on day 1, 8 and 15): durable response | duration of durable response ([8]; single dose 0.75 mg/kg): more than 50 days | tumor response ([8]; single dose 0.75 mg/kg on day 1, day 49, P≤0.0061, 0.75 mg/kg): equally effective in killing and causing regression of tumors | tumor response ([8]; single dose 0.75 mg/kg on day 1, day 49, P≤0.0061, listed as MES-ADC, 0.75 mg/kg): significantly reduce established tumor growth | tumor response [9]: equally effective in killing and causing regression of both tumors | tumor response [9, 13]: induced significant tumor regression

B3: MES-BSP: bispecific antibody, SEQ ID NO: 3 (single chain anti-CD3 fused to MES-1 light chain) and SEQ ID NO: 2 (protein)
light: QVQLVESGGGVVQPGRSLRLSCAASGYTFTRYTMHWVRQAPGKCLEWIGYINPSRGYTNYNQKVKGRFTISRDNSKNTAYLQMNSLRAEDTAVYYCARYYDDHYCLDYWGQGTLVTVSSGGGGSGGGGSGGGGSGGGGSDIQMTQSPSSLSASVGDRVTITCSASSSVSYMNWYQQKPGKAPKLLIYDTSKLASGVPSRFSGSGSGTDYTFTISSLQPEDIATYYCQQWSSNPFTFGCGTKLEIKGGGGSDIQMTQSPSSLSASVGDRVTITCQASQRISSYLSWYQQKPGKVPKLLIYGASTLASGVPSRFSGSGSGTDFTLTISSLQPEDVATYYCQSYAYFDSNNWHAFGGGTKVEIKRTVAAPSVFIFPPSDEQLKSGTASVVCLLNNFYPREAKVQWKVDNALQSGNSQESVTEQDSKDSTYSLSSTLTLSKADYEKHKVYACEVTHQGLSSPVTKSFNRGEC
heavy: EVQLVESGGGLVQPGGSLRLSCAASGFDLGFYFYACWVRQAPGKGLEWVSCIYTAGSGSTYYASWAKGRFTISRDNSKNTLYLQMNSLRAEDTAVYYCARSTANTRSTYYLNLWGQGTLVTVSS[left out - human IgG1 constant region]
reduction of tumors as compared to control treated mice ([10]; 3 mg/kg 3×QOD for 3 weeks, human PBMCs i.p., P=0.033): 70% | tumor growth suppression ([10]; humanized PBMC mouse model): able to statistically suppress tumor growth | PBMC immune-mediated target cell killing [1]: significantly higher killing; also recorded: significantly the highest target cell killing | ADCC activity (luciferase readout) (OVCAR3 cells): equally effective | ADCC activity (luciferase readout) [11]: equally effective

B4: SN38-MES-ADC (conjugate)
light: DIQMTQSPSSLSASVGDRVTITCQASQRISSYLSWYQQKPGKVPKLLIYGASTLASGVPSRFSGSGSGTDFTLTISSLQPEDVATYYCQSYAYFDSNNWHAFGGGTKVEIKRTVAAPSVFIFPPSDEQLKSGTASVVCLLNNFYPREAKVQWKVDNALQSGNSQESVTEQDSKDSTYSLSSTLTLSKADYEKHKVYACEVTHQGLSSPVTKSFNRGEC
heavy: EVQLVESGGGLVQPGGSLRLSCAASGFDLGFYFYACWVRQAPGKGLEWVSCIYTAGSGSTYYASWAKGRFTISRDNSKNTLYLQMNSLRAEDTAVYYCARSTANTRSTYYLNLWGQGTLVTVSS[left out - human IgG1 constant region]
reduced tumor growth ([4]; 20 mg/kg i.v. day 1, 3, 5, 7, 9, 11, 13, 15, p≤0.011): 48% | in vivo efficacy, cleavable versus non-enzymatic cleavable format [4]: significantly more efficacious in vivo | cell killing of mesothelin-negative lines [5]: unaffected | reduced tumor growth vs. vehicle-treated group ([12]; 10 mg/kg i.v. day 8, 9, 10, P≤0.049): 25% | reduced tumor growth vs. vehicle-treated group ([12]; 20 mg/kg i.v. day 8, 9, 10, P≤0.0003): 53% | target cell killing [6]: most potent targeted killing effect; also recorded: most significant cell killing

“Also recorded” adds a separate entry of the source.
